# Laboratory results as given in PubChem BioAssay AID894 (National Center for Advancing Translational Sciences (NCATS), 2007).
# Screen size: about 150,000 compounds; about 6,500 (4.3%) were called active. The inconclusive results got no clear call from the source; some entries with a clear call stand among them for comparison. Calls come from the whole dose curve; as a rule, active = well fitted inhibition curve with a large enough effect (not every such curve was filed as active); inconclusive = small, poorly fitted or top-dose-only effect, or another doubt; inactive = no such curve, though single readings can be large or run the other way. No potency is given beside an inconclusive call; the fits are too rough.
# Biological target: 15-hydroxyprostaglandin dehydrogenase [NAD(+)] (Homo sapiens) (UniProt P15428)
# UniProt P15428, sequence (P15428 whole entry, looked up): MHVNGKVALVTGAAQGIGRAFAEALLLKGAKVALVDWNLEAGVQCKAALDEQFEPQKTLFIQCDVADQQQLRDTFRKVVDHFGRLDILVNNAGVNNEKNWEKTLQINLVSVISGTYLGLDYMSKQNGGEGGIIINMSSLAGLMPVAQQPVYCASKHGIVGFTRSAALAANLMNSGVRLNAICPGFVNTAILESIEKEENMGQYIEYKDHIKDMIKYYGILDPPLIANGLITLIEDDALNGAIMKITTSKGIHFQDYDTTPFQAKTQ
# Test: qHTS Assay for Inhibitors of HPGD (15-Hydroxyprostaglandin Dehydrogenase)
# Conditions: purified HPGD, NADH fluorescence kinetic, PGE2 substrate; activity change, negative = inhibition: stronger effect = lower value
# In short: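 20 nM HPGD preincubated 15 min at room temperature with compound in 50 mM Tris-HCl pH 8, 0.01% Tween 20. Started with 1 mM NAD+ and 30 uM prostaglandin E2; NADH fluorescence (360/450 nm) read 5 times over 30-s intervals, last minus first.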
# % is set by controls: 0 for no effect and ±100 for the full control effect; potency is the fitted concentration of half-maximal effect; tags give direction and shape of the fitted curve.
SMILES,Potency,"activity change, negative = inhibition"
CCOc1ccc(-c2nnc(-c3cccs3)o2)cc1OCC,"inconclusive [inhibitor, partial curve]",
CCOc1ccc2nc(NC(=O)C3CCN(c4cnccn4)CC3)sc2c1,"inconclusive [inhibitor, partial curve]",
Cc1ccc2[nH]c3c(=S)nc[nH]c3c2c1,,inactive: -26.6%
c1ccc(CSc2ncnc3c2cnn3-c2ccccc2)cc1,active: 25.1 µM,
CCC(C)N=CC1=C(O)CC(c2ccccc2)CC1=O (stereo not drawn),"inconclusive [inhibitor, partial curve]",
Cc1ccccc1NC(=O)C1CCN(c2cc(-c3ccccc3)nc3ncnn23)CC1,"inconclusive [inhibitor, partial curve]",
CC1(C)CC(=O)C(/C=N/c2ncccc2C(=O)O)=C(O)C1,"inconclusive [inhibitor, partial curve]",
O=C(O)CCC(=O)Nc1nnc(C(F)(F)F)s1,,inactive: -7.33%
CSc1ccc(C2NC(=O)c3c(sc4c3CCN(C)C4)N2)cc1 (stereo not drawn),"inconclusive [inhibitor, partial curve]",
CC1(C)SC2C(NC(=O)C(C(=O)O)c3ccccc3)C(=O)N2C1C(=O)O (stereo not drawn),,inactive: -1.77%
C[C@@H](NCc1cc(Br)cc2[nH]c(=O)c(=O)[nH]c12)P(=O)(O)O,,inactive: -3.31%
COC(=O)c1c(NC(=O)c2ccco2)sc(C(=O)N(C)C)c1C,"inconclusive [inhibitor, single point]",
CCN(CC)CCCN(Cc1cc2cc3c(cc2[nH]c1=O)OCO3)C(=O)Nc1ccccc1OC,"inconclusive [inhibitor, single point]",
Nc1cc(C(F)(F)F)cc2c1SCC(=O)N2,,inactive: -7.36%
O=C(NNC(=S)Nc1cccc(C(F)(F)F)c1)c1cccc(Cl)c1,,inactive: -8.11%
O=C(c1cccc(S(=O)(=O)N2CCCCC2)c1)N1CCCCC1,,inactive: -11.4%
CCOc1ccc2[nH]c(=O)c(CN(Cc3ccco3)C(CC)c3nnnn3Cc3ccccc3)cc2c1 (stereo not drawn),"inconclusive [inhibitor, partial curve]",
CCOc1ccccc1-n1cnc2cc(C(=O)NCc3ccco3)ccc21,active: 15.8 µM,
O=C1c2ccncc2C(=O)N1Cc1cccc(Cl)c1,active: 17.8 µM,
COC(=O)[C@@H](NC(=O)Nc1ccc(OC(F)(F)F)cc1)C(C)C,active: 28.2 µM,
Cc1cccc(NC(=O)c2oc(=O)c3ccccc3c2-c2ccccc2)c1C,"inconclusive [inhibitor, partial curve, poor fit]",
N#Cc1c(N)c(C#N)c(-c2ccc3c(c2)OCO3)c2c1CCCC2,"inconclusive [inhibitor, partial curve]",
CCCNC(=O)C1CCN(S(=O)(=O)c2ccc(Br)cc2)CC1,,inactive: -20.3%
COc1ccc(S(=O)(=O)N2CCCCC2)cc1,,inactive: -4.28%

SMILES,Potency,"activity change, negative = inhibition"
CCCc1nc2c(nnn2Cc2ccccc2F)c(=O)[nH]1,active: 28.2 µM,
COc1ccc(S(=O)(=O)NC(CC(=O)N2CCc3ccccc32)c2ccco2)cc1 (stereo not drawn),,inactive: 5.5%
O=C(CN1CCN(c2ccc(O)cc2)CC1)Nc1cc([N+](=O)[O-])ccc1Cl,,inactive: -8.44%
CCCCCCCNC(=O)COc1ccc2c(c1)C(=O)CC(C)(C)O2,"inconclusive [inhibitor, partial curve]",
Cc1cc(-c2nc3ncccc3o2)ccc1NC(=O)CC(C)C,"inconclusive [inhibitor, partial curve]",
Oc1ccc(-c2cnns2)c(O)c1,active: 2 µM,
COc1cc(/C=N/NC(=O)C(C)Nc2n[nH]c(=O)[nH]c2=O)ccc1O (stereo not drawn),"inconclusive [inhibitor, partial curve]",
Cc1noc(NS(=O)(=O)c2ccc(NC(=O)CSc3n[nH]c(-c4ccccc4)n3)cc2)c1C,active: 4.47 µM,
CC(C)(C)C1=C(C#N)C(c2ccc3c(c2)OCO3)C(C#N)=C(N)O1 (stereo not drawn),"inconclusive [inhibitor, partial curve]",
CCCn1nc(CC(=O)OCC)c2ccccc2c1=O,,inactive: -15.4%
CCn1cc(C(=O)NCCCN(C)C)c(=O)c2cc(F)c(N3CCN(C)CC3)cc21,"inconclusive [inhibitor, single point]",
C[C@@H](C[N+](C)(C)C)OC(N)=O,,inactive: 0.0167%
Oc1ccc(/C=N/NC(=S)Nc2cccnc2)c(O)c1,"inconclusive [inhibitor, partial curve]",
CCN(CC)c1ccc(/C=N/NC(=S)NCc2ccccc2)cc1,"inconclusive [inhibitor, partial curve]",
C#C[C@]1(O)CCC2C3CCC4=Cc5oncc5C[C@@]4(C)C3CC[C@@]21C (stereo partly drawn),,inactive: -16.3%
CCc1cc(-c2n[nH]c(=S)n2-c2cccc(C)c2)cs1,"inconclusive [inhibitor, partial curve]",
CCCCOc1ccccc1C1C(C(=O)OC)=CN(CC)C=C1C(=O)OC,"inconclusive [inhibitor, partial curve]",
O=C(O)c1cn(-c2ccc(F)cc2)c2cc(N3CCNCC3)c(F)cc2c1=O,"inconclusive [inhibitor, partial curve]",
CC(C)n1c(-c2ccccc2F)n[nH]c1=S,,inactive: -8.51%
COc1ccc(/C=C(/C(=O)c2ccc(Cl)cc2Cl)n2cncn2)cc1,,inactive: -11.5%
COC(=O)c1cc2c(C)c(C)c3ccccn3c-2c1C(=O)OC,,inactive: -5.76%
COc1ccc(NC(=O)c2cc(-c3cc(C)ccc3O)n[nH]2)cc1Cl,active: 3.16 µM,
COc1ccc(/C(C)=N\NS(C)(=O)=O)c(OC)c1,"inconclusive [inhibitor, partial curve]",
Cn1c(=O)c2c(nc(N3CCCCCC3)n2CC(O)COc2ccccc2)n(C)c1=O (stereo not drawn),,inactive: -8.86%
